The whole screen tested about 360,000 compounds, of which about 2,600 (0.72%) were called active. This list was built around the results that the source calls inconclusive (neither active nor inactive); the mix of calls is not that of the screen. Calls follow the shape of the dose curve; as a rule, active = well fitted inhibition curve with a large enough effect; inconclusive = small, poorly fitted or top-dose-only effect; inactive = no such curve, though single readings can be large or run the other way. Potencies beside an inconclusive call are fits to weak or partial responses and may not hold up.
experiment: Primary qHTS for Inhibitors of ATXN expression; conditions: HEK-293 ATXN2-luciferase reporter, luminescence, 24 h; activity change, negative = inhibition: at 57 µM (top of the series); also: nearly all actives have a fitted effect of over 55% in size
How it was run: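 ATXN2-luciferase reporter cells (luciferase flanked by upstream and downstream ATXN2 gene portions) were treated 24 h at 37 °C with compounds at up to 57 uM. SteadyGlo luminescence gave expression; GF-AFC fluorescence gave viability.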
% is scaled to controls: 0 for no effect and ±100 for the full control effect; potency is read from the fitted curve at half-maximal effect; tags tell the direction and shape of the fitted curve.

Compound	Potency	activity change, negative = inhibition
COc1ccccc1N1CCN(c2ncnc3c2cnn3-c2cc(Cl)ccc2C)CC1	inconclusive: 4.47 µM [inhibitor, partial curve, poor fit]	–
O=C(CSc1nnnn1-c1ccccc1)Nc1ncc2c(n1)CC(c1ccccc1)CC2=O (configuration not stated)	inconclusive: 31.6 µM [inhibitor, single point]	–
CCOC(=O)c1c(COc2ccccc2)oc2ccc(O)cc12	–	inactive: -5.52%
Cc1cc2oc(C(=O)Nc3ccc(S(N)(=O)=O)cc3)cc(=O)c2cc1C	–	inactive: 4.44%
CN(C)CCCN(C(=O)COc1ccccc1)c1nc2ccc(Cl)cc2s1	inconclusive: 39.8 µM [inhibitor, single point]	–
CCOC(=O)N1CCN(C(=O)CN(c2cccc(C)c2)S(=O)(=O)c2ccccc2)CC1	–	inactive: 4.07%
CCN(c1ccccc1)S(=O)(=O)c1cc(C(=O)Nc2ccc(F)c(F)c2)ccc1F	inconclusive: 22.4 µM [inhibitor, single point]	–
COc1ccc(/C=N\NC(=O)c2ccccc2Br)cc1COc1c(F)c(F)cc(F)c1F	inconclusive: 14.1 µM [inhibitor, partial curve, poor fit]	–
Cc1cc(N/N=C/c2c(O)ccc3ccccc23)nc(-c2ccccc2O)n1	inconclusive: 8.91 µM [inhibitor, partial curve, poor fit]	–
Cc1ccc(Cn2c(C)c(C(=O)NCC(C)C)sc2=O)cc1	–	inactive: 9.63%
Cc1cccc(NC(=S)NC(C)(C)CC(C)(C)C)c1	inconclusive: 39.8 µM [inhibitor, single point]	–
CCOC(=O)C1CCCN(C(=O)c2cc3nc(-c4ccc5c(c4)OCO5)cc(C(F)(F)F)n3n2)C1 (configuration not stated)	inconclusive: 20 µM [inhibitor, partial curve, poor fit]	–
CCOc1ccccc1N1CCN(c2ncnc3scc(-c4ccc(OC)cc4)c23)CC1	inconclusive: 39.8 µM [inhibitor, single point]	–
CCc1nnc(NC(=O)c2nc(S(=O)(=O)Cc3ccc(C)cc3)ncc2Cl)s1	inconclusive: 39.8 µM [inhibitor, single point]	–
CC(/C=N/Nc1ncc(C)c(=O)[nH]1)=C\c1ccccc1	inconclusive: 0.752 µM [inhibitor, partial curve, poor fit]	–
CCn1c(=O)c2cc(C(=O)NCCOC)sc2c2ccccc21	–	inactive: 6.32%
Cc1ccc(C(=O)NC(C#N)=C(Cl)Cl)cc1	–	inactive: -30.1% [at 11.3 µM]
Cc1nc2cc(-c3ccc(Cl)cc3)nn2c(C)c1CCC(=O)NC(C)c1ccc2c(c1)OCCO2 (configuration not stated)	inconclusive: 15.8 µM [inhibitor, partial curve, poor fit]	–
CC(c1ccccc1)n1c(-c2ccncc2)n[nH]c1=S (configuration not stated)	–	inactive: -15.2%
COc1ccc(C(=O)NC(=S)NNC(=O)COc2ccccc2)cc1	inconclusive: 25.1 µM [inhibitor, single point]	–
COc1ccc(CN(C)CC(=O)Nc2c(C)cccc2C)c(OC)c1	inconclusive: 37.7 µM [inhibitor, partial curve, poor fit]	–

Compound	Potency	activity change, negative = inhibition
Cc1ccc(NC(=O)CSc2nnnn2-c2ccc3c(c2)OCO3)cc1C	inconclusive: 22.4 µM [inhibitor, partial curve, poor fit]	–
COc1ccc(/C=C2\Sc3ccc(C(=O)NCc4cccnc4)cc3N(C)C2=O)cc1OC	inconclusive: 31.6 µM [inhibitor, single point]	–
CC(=O)Nc1cccc(-c2cc(NC(C)=O)c3ncc(-c4ccc(F)cc4)n3c2)c1	inconclusive: 31.6 µM [inhibitor, single point]	–
COc1ccc(-n2c(=O)c(CCC(=O)N(C)Cc3ccccc3C)nc3ccccc32)cc1	inconclusive: 0.212 µM [inhibitor, partial curve, poor fit]	–
Cc1ccc(-c2c(C#N)c(N)n3c(nc4ccccc43)c2C#N)cc1	inconclusive: 11.2 µM [inhibitor, partial curve]	–
CNC(=O)NC(=O)C(C)OC(=O)CCCc1nc2ccccc2s1 (configuration not stated)	inconclusive: 33.6 µM [inhibitor, single point]	–
COc1ccc(Cl)cc1NC(=O)CN(C)CC(=O)Nc1cccc(S(=O)(=O)N2CCCC2)c1	–	inactive: -23.3%
CCOc1ccc(C(=O)/C=C/c2cn(CC(O)CN3CCCCCC3)c3ccccc23)cc1 (configuration not stated)	inconclusive: 39.8 µM [inhibitor, single point]	–
CC1(C(=O)Nc2ccc3c(c2)OCO3)CCN1C(=O)Cc1ccc(-c2ccccc2)cc1 (configuration not stated)	inconclusive: 22.4 µM [inhibitor, partial curve, poor fit]	–
COc1ccc(OCC(=O)Nc2nnc(S(=O)(=O)N3CCc4ccccc43)s2)cc1	–	inactive: 6.81%
Cc1cccc(C)c1Nc1c(-c2ccccc2F)nc2cccc(C)n12	inconclusive: 35.5 µM [inhibitor, single point]	–
CN1CCN(CC#CCn2c3ccccc3c3ccccc32)CC1	active: 25.1 µM	–
O=C(NC1CC1)c1cccc(Nc2ccc(-c3ccc4c(c3)OCCO4)nn2)c1	–	inactive: -9.83%
c1ccc(-c2csc3ncnc(NCCN4CCOCC4)c23)cc1	inconclusive: 39.8 µM [inhibitor, single point]	–
O=C(c1cc([N+](=O)[O-])ccc1N1CCCCC1)N1CCc2ccccc21	inconclusive: 11.2 µM [inhibitor, partial curve, poor fit]	–
Cc1cc(C)cc(NC(=O)CN(c2cc(C(F)(F)F)ccc2Cl)S(=O)(=O)c2ccccc2)c1	–	inactive: 2.56%
O=C(COc1ccccc1Cl)Nc1cc(-c2ccccc2F)nn1-c1ccccc1	–	inactive: 6.21%
CC(C)(C)c1ccc(Cn2c(Cc3ccccc3)nc3ccccc32)cc1	inconclusive: 20 µM [inhibitor, partial curve, poor fit]	–
C/C(=N\NC(N)=S)c1cc(-c2ccccc2)c(-c2ccccc2)s1	inconclusive: 35.5 µM [inhibitor, single point]	–
Cc1cc(NCc2ccccc2)c2ccccc2n1	inconclusive: 20 µM [inhibitor, single point]	–
CC1CCCCC1NC(=O)COC(=O)c1ccc2c(c1Cl)C(=O)c1ccccc1C2=O (configuration not stated)	–	inactive: 7.54%

— PubChem BioAssay AID1745845 (National Center for Advancing Translational Sciences (NCATS), 2022)
